# Measured values from PubChem BioAssay AID1508623 (National Center for Advancing Translational Sciences (NCATS), 2021).
# About 450 (0.94%) of roughly 48,000 compounds were called active. Inconclusive results (about 19%) are left out. The call rests on the fitted dose curve; in most records, active means well fitted inhibition curve with a large enough effect; inconclusive means small, poorly fitted or top-dose-only effect; inactive means no such curve, though single readings can be large or run the other way. The list shows a part of the results.
# Test: Primary qHTS for Identification of Small Molecule Inhibitors of Huntingtin Promoter Activity; further: nearly all actives have a fitted effect of over 50% in size
# Conditions: HEK293 HTT promoter firefly luciferase reporter (activity 0% = vehicle and -100% = no light), 24 h; series mostly up to 57.5 µM; activity change, negative = inhibition: at the top concentration
# Method in brief: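 HEK293 cells carrying firefly luciferase reporters were seeded at 2,500 per well in Opti-MEM and cultured for 24 h. They were then treated with compounds at up to 57.5 uM final for 24 h at 37 degrees C before Dual-Glo luminescence readout.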
row,SMILES,"activity change, negative = inhibition"
1,CCNc1nc(N)nc(Oc2ccc(OCC(=O)OC)nn2)n1,inactive: -5.3%
2,CCN(CC)CCNc1ncnc2c1cnn2-c1cc(Cl)ccc1C,inactive: -8.95%
3,CCOc1ccc(-c2nc(CNC(=O)NC3CCCCC3)c(C)o2)cc1,inactive: -12.5%
4,Cc1ccc(C(=O)Nc2nc3nc(C)cc(=O)n3[nH]2)cc1,inactive: -2.72%
5,COc1cccc(CNC(=O)CSc2nc(=O)[nH]c3c2CCC3)c1,inactive: -11.4%
6,CCCN(C(=O)C(=O)Nc1ccc2nc3n(c(=O)c2c1)CCCCC3)c1ccc(OCC)cc1,inactive: 2.06%
7,CCc1nnc(NS(=O)(=O)c2ccc(N)cc2)s1,inactive: 1.3%
8,COc1ccc(CCNc2nc3ccc(Cl)cc3n3cnnc23)cc1OC,inactive: -9.35%
9,Cc1cccc2nc(-c3ccc(N(C)C)cc3)c(Nc3ccc4c(c3)OCO4)n12,inactive: 20.1%
10,Cc1ccc(NC(=O)/C=C/c2ccc(Cl)cc2)c(Br)c1,inactive: 1.32%
11,COc1ccccc1-c1nnc(C2CCN(C(=O)c3cccc(Cl)c3)CC2)o1,inactive: -18.1%
12,Cc1cccc(C(c2sc3nc(-c4ccco4)nn3c2O)N2CCN(Cc3ccccc3)CC2)c1 (configuration not stated),inactive: 8.25%
13,CCOC(=O)c1ccccc1NC(=O)Cn1c(=O)n(CCC(=O)N2CCc3ccccc3C2)c(=O)c2ccccc21,inactive: -19.6%
14,COc1cc(NC(=O)c2cc(Cl)ccc2Cl)ccc1NC(=O)c1cc2ccccc2o1,inactive: -20.3%
15,COCCCNC(=O)c1[nH]c2ccccc2c1Sc1ccc(C)cc1,inactive: -20.5%
16,CN(C)c1ccc(CNC(=O)c2cnc3sc(N4CCCC4)nn3c2=O)cc1,inactive: -1.98%
17,CCS(=O)(=O)N1CCc2cc(C(=O)NCc3ccc(Cl)cc3)ccc21,inactive: -28.6%
18,COc1ccc(NC(=O)c2ccc3c(SCC(=O)O)c4c(nc3c2)CCCC4)cc1OC,inactive: -13.5%
19,CC(=O)c1cccc(NC(=O)CSc2nnc3ccc(-c4ccc(F)cc4)nn23)c1,inactive: -2.35%
20,O=C(NCCc1ccccc1)c1cc(-c2ccc(Br)cc2)on1,inactive: -10.5% [at 11.5 µM]
21,CCOC(=O)c1c(C)oc2ncnc(N3CCN(c4ccc(C)cc4C)CC3)c12,inactive: -7.18%
22,CCOC(=O)c1cccc(-n2nnc3c(sc4nc(C)c(Br)c(C)c43)c2=O)c1,inactive: 0.191%
23,Cc1sc2ncn(CC(=O)Nc3ccc(F)cc3Cl)c(=O)c2c1S(=O)(=O)N1CCN(c2ncccn2)CC1,inactive: -10.6%
24,Cn1c(=O)c2c(nc(Oc3ccc(C#N)cc3)n2Cc2ccc(Cl)cc2Cl)n(C)c1=O,inactive: -2.13%
25,CCOC(=O)c1ccccc1NC(=O)Cn1c(=O)n(CCC(=O)NCc2ccccc2OC)c(=O)c2ccccc21,inactive: -18.6%

row,SMILES,"activity change, negative = inhibition"
1,CCN1CCN(c2csc3ccc(F)cc3c2=O)CC1,inactive: 6.37%
2,Cc1cccn2c(=O)cc(CSc3nnc(NC(=O)COc4ccc(F)cc4)s3)nc12,inactive: -7.22%
3,COc1ccc(-c2nc3scc(CCNS(=O)(=O)c4c(C)noc4C)n3n2)cc1OC,inactive: -6.3%
4,COc1cccc(CNC(=O)c2[nH]c3cc(C)ccc3c2Sc2ccccc2)c1,inactive: 26.7%
5,CCOC(=O)c1c(S(=O)(=O)NCC(=O)N2CCN(c3cccc(Cl)c3)CC2)c(C)n(C)c1C,inactive: -11.1%
6,COc1ccccc1NC(=O)c1oc2ccccc2c1NC(=O)C(C)C,inactive: -11.9%
7,Cc1cccc(NC(=O)CSc2nnc3scc(-c4ccccc4)n23)c1,inactive: -11.7%
8,O=C1CCc2cc(S(=O)(=O)NCc3ccc(Cl)cc3)cc3c2N1CC3,inactive: -13.3%
9,COc1cccc(-c2nnc(-c3cc4cc(Cl)ccc4oc3=O)o2)c1,inactive: -11.7% [at 11.5 µM]
10,COc1cc(-c2noc(CSc3nc(-c4ccc(F)cc4)cc(=O)[nH]3)n2)cc(OC)c1OC,inactive: 2.61%
11,COc1ccccc1NC(=O)Cn1cnc2c(nc3n2CCCCC3)c1=O,inactive: -3.37%
12,CCC1CCC(C(=O)NC(C(=O)NCCN(CC(C)C)CC(C)C)C(C)C)CC1 (configuration not stated),inactive: -1.03%
13,Cc1ccccc1CNC(=O)c1ccccc1NC(=O)c1nsc2ccccc12,inactive: 21.4%
14,O=C(Nc1ccc(Cl)c(C(F)(F)F)c1)C1CCCN(S(=O)(=O)c2cccc3cccnc23)C1 (configuration not stated),inactive: -1.33%
15,O=c1c(N2CCN(c3cccc(C(F)(F)F)c3)CC2)csc2ccccc12,inactive: -18.5%
16,CC1CCN(S(=O)(=O)c2ccc3c(c2)c(=O)c(C(=O)NCc2ccc(Cl)cc2)cn3C)CC1,inactive: -20.4% [at 11.5 µM]
17,O=C(Nc1ccc(F)cc1)N1CCN(c2ccc3nnc(-c4ccc(F)cc4)n3n2)CC1,inactive: -14.7%
18,Cc1ccc(-n2nnc(-c3nsc(NC(=O)c4ccccc4C)n3)c2C)cc1Cl,inactive: -17.3%
19,COc1ccc(-c2c3c(=O)n(C)c(=O)n(C)c3cn2-c2cccc(N)c2)cc1,inactive: -8.82%
20,COc1ccc(-c2cn3c(n2)sc2cc(C(=O)NCc4cccs4)ccc23)cc1,inactive: 21.1%
21,COCCCNC(=O)c1[nH]c2cc(OC)ccc2c1Sc1ccc(C)cc1,inactive: -4.57%
22,CCn1cc(C(=O)NCCc2ccc(Cl)cc2)c(=O)c2cc(S(=O)(=O)N3CCc4ccccc4C3)ccc21,inactive: 4.84%
23,Cc1nn(-c2ccccc2)c2c1N(CC(=O)NCc1ccc(N(C)C)cc1)C(=O)CS2,inactive: -24.1%
24,O=C(NCCOCCO)C(=O)Nc1c2c(nn1-c1ccc(F)cc1)CSC2,inactive: -9.99%
25,Cc1ccc2cc3cc(C(=O)N4CCN(c5cccc(C(F)(F)F)c5)CC4)sc3nc2c1,inactive: 2.55%

row,SMILES,"activity change, negative = inhibition"
1,CCC(=O)N1CCc2cc(S(=O)(=O)CCC(=O)N3CCN(c4ccccc4Cl)CC3)ccc21,inactive: 0.43%
2,Cc1ccc(N(Cc2cccs2)C(=O)c2ccccc2)cc1,inactive: -21.6%
3,COc1ccc(-c2nc3ccc(NS(C)(=O)=O)cc3o2)cc1,inactive: 85.7%
4,Clc1ccccc1Cn1cccc1C1=NC(Cc2ccccc2)CO1 (configuration not stated),inactive: -5.28%
5,Cn1c(SCC(N)=O)nc2c([nH]c3ccccc32)c1=O,inactive: 4.84%
6,O=C(O)c1ccc(Nc2nc(-c3ccccc3)c3cc(Br)ccc3n2)cc1,inactive: -18.7%
7,Cc1noc(/C=C/c2ccccc2F)c1S(=O)(=O)N1CCC(C(=O)N2CCOc3ccccc32)CC1,inactive: -7.67%
8,CCc1ccc(NC(=O)Cn2c(=O)n(CCC(=O)NCCc3ccc(Cl)cc3)c(=O)c3ccccc32)cc1,inactive: -10.3%
9,COc1ccc(C(=O)Nc2nc(-c3nnn(-c4ccc(C(C)C)cc4)c3C)ns2)cc1,inactive: -26.4%
10,COc1ccccc1CCNC(=O)C(C)Sc1nc(-c2ccccc2)cc(C(F)(F)F)n1 (configuration not stated),inactive: -3.1%
11,O=C(Cn1ncn2c(cc3ccccc32)c1=O)NCc1ccc(F)cc1,inactive: -6.33%
12,COc1ccc(Nc2ncnc3c2nc2n3CCCCC2)cc1,inactive: 17.2%
13,CCCOc1ccc(CNC(=O)c2[nH]c3cc(OC)ccc3c2Sc2ccccc2)cc1,inactive: -6.67%
14,COc1ccc(CCNC(=O)c2c(C)oc3ncn(C)c(=O)c23)c(OC)c1,inactive: 0%
15,CC(=O)Nc1ccc(N(C(=O)Cn2nnc3ccccc32)C(C(=O)NCc2ccccc2)c2ccc(C)cc2)cc1 (configuration not stated),inactive: -22.3%
16,Cc1ccc2[nH]c(=O)c3cc(C(=O)NCCCN4CCC(C)CC4)sc3c2c1,inactive: -25.2%
17,CCOC(=O)C(Cc1c[nH]c2ccccc12)NC(=O)COc1ccc(CC)cc1 (configuration not stated),inactive: -18.7%
18,Cc1cc(NC(=O)CN2CCC(C)CC2)nc2c1c(=O)oc1ccccc12,inactive: 12.3%
19,Cc1ccc(Cl)cc1NC(=O)CN1C(=O)CCc2ccccc21,inactive: -18.6%
20,CCOC(=O)c1c(C)[nH]c(C)c1S(=O)(=O)N1CCC(C(=O)NCc2ccccc2Cl)CC1,inactive: -31.6%
21,COc1ccc(CC(=O)NCc2nc3cccnc3n2Cc2ccccc2)cc1,inactive: -0.0029%
22,COC(=O)c1ccccc1NC(=O)CCCn1c(=O)c2cccn2c2cccnc21,inactive: -7.76%
23,CC(C)COc1ccc(C(=O)Nc2cc(-c3ccccc3)no2)cc1,inactive: 15%
24,O=C(Cn1cnc2ccccc2c1=O)NCCC(=O)Nc1ccc(F)cc1,inactive: 12.2% [at 11.5 µM]
25,COc1cccc(N2CCN(S(=O)(=O)c3cc(-c4cc(C)no4)ccc3C)CC2)c1,inactive: -3.52%

row,SMILES,"activity change, negative = inhibition"
1,CCCCN(CC)CCCNC(=O)Cn1ncc2c([nH]c3ccc(C)cc32)c1=O,inactive: 7.21%
2,O=c1c2cn[nH]c2nc(SCc2c(F)cccc2F)n1-c1ccc(Cl)cc1,inactive: -11.7%
3,COc1ccc(N(CC(=O)N2CCN(c3ccc(F)cc3)CC2)S(=O)(=O)c2c(C)noc2C)cc1,inactive: -26.5%
4,Cc1ccc(/C=C/C(=O)Nc2ccccc2C(N)=O)o1,inactive: 60.3%
5,COc1cc(OC)cc(-c2nc3n(n2)C(c2ccccc2)C(C(N)=O)=C(C)N3)c1 (configuration not stated),inactive: -6.9%
6,CC(C)(C)OC(=O)N1CCC(c2c(C(=O)NCCc3ccccc3)cnn2-c2ccc(F)cc2F)CC1,inactive: -5.33%
7,Cc1ccc(CCNC(=O)c2c(C)oc3ncn(CC(C)C)c(=O)c23)cc1,inactive: -9.08%
8,COc1ccc(-c2c(C)c3ccc(O)c(CN4CCN(CCO)CC4)c3oc2=O)cc1OC,inactive: -13.3%
9,Cn1c(=O)oc2cc(S(=O)(=O)N3CCC(C(=O)N4CCN(c5ccccc5F)CC4)CC3)ccc21,inactive: -17.6%
10,O=C(Nc1ncc([N+](=O)[O-])s1)c1cccs1,inactive: -26%
11,COc1ccc(C(=O)NCc2ccc(OCCN(C)C)cc2)cc1OC,inactive: 5.46%
12,Cc1ccc(C)c(N2CCN(C(=O)CSCc3ccccc3Cl)CC2)c1,inactive: -20.2%
13,Cc1cccc(NC(=O)CCS(=O)(=O)c2cc(Br)cc3c2N(C(=O)C2CC2)CC3)c1,inactive: -10.4%
14,Cc1ccc(CNC(=O)CC2Oc3ccc(Cl)cc3NC2=O)cc1 (configuration not stated),inactive: -3.63%
15,CC(=O)Nc1ccccc1-c1nc2ccccc2n(CC(=O)Nc2cccc(C(F)(F)F)c2)c1=O,inactive: -25.2%
16,Cc1ccc(CO)cc1Nc1ncnc2onc(-c3ccc(F)cc3)c12,inactive: -13.7%
17,CCS(=O)(=O)N1CC(=O)N(c2ccc(Cl)cc2)C(C)(C(=O)NC2CCCCC2)C1 (configuration not stated),inactive: 4.77%
18,CCOc1cccc2cc(S(=O)(=O)c3ccccc3F)c(=O)oc12,inactive: -28.8%
19,CCOc1ccc(CNC(=O)c2ccc3c(c2)nc2n3CCOC2)cc1OC,inactive: -9.57%
20,CCc1cccc(NC(=O)C(Cc2ccccc2)n2cccc2)c1 (configuration not stated),inactive: -27.3%
21,COc1ccc(N2CC(NC(=O)c3ccc(S(=O)(=O)N4CCCCC4)cc3)CC2=O)cc1 (configuration not stated),inactive: -29.9%
22,CC1=C(C(=O)Nc2ccc(F)cc2F)C2(CCN(C(C)C)CC2)OC1=O,inactive: -1.53%
